Hit rate of the full screen: of about 360,000 compounds, about 7,500 (2.1%) were called active. Inconclusive means that the source gave no clear call. Such entries were picked first, then a sample of the others. Calls follow the shape of the dose curve; as a rule, active = well fitted cell-killing curve with a large enough effect; inconclusive = small, poorly fitted or top-dose-only effect, or effect the other way, or another doubt; inactive = no such curve, though single readings can be large or run the other way. Potencies of inconclusive entries are left out as doubtful fits.
assay: qHTS for induction of synthetic lethality in tumor cells producing 2HG: qHTS for the HT-1080-IDH1KD cell line; settings: HT-1080 IDH1 knockdown viability, ATP luminescence, 48 h; activity, negative = toxicity: at 46.1 µM (top of the series) unless noted;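 as to activity, negative = toxicity: 0% = DMSO wells and -100% = cell-free medium wells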
Outline: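 Luminescent ATP read-out (CellTiter-Glo, 10 min at room temperature) after 48 h compound exposure at 37 °C gave viability of IDH1-knockdown HT-1080 cells. Activity was normalised to DMSO and cell-free wells, then fitted as concentration-response curves.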
Potency is read from the fitted curve at half-maximal effect; tags tell the direction and shape of the fitted curve.

Row | Compound | Potency | activity, negative = toxicity
1 | CC1=C(C(=O)Nc2ccc(CC(=O)NCc3ccccc3C)cc2)SCCO1 | inconclusive [cytotoxic, single point] | 
2 | Cc1cc(C(=O)N/N=C/c2cc(Br)cc([N+](=O)[O-])c2O)c2ccccc2n1 | inconclusive [cytotoxic, single point] | 
3 | Cn1cnc([N+](=O)[O-])c1Sc1ncn[nH]1 | inactive | 
4 | Cc1ccccc1-c1ccc(CN2C(C(C)C)C(=O)N(Cc3cn(CCC4OCCO4)nn3)CCS2(=O)=O)cc1 (centres undefined) | inconclusive [cytotoxic, single point] | 
5 | CC(C)(C)c1ccc2c(c1)OC(C(=O)N/N=C/c1ccc([N+](=O)[O-])o1)CO2 (centres undefined) | inconclusive [cytotoxic, single point] | 
6 | CCOc1ccc(Cl)cc1-c1cc(C(=O)Nc2ccc(Br)cc2)[nH]n1 | inconclusive [cytotoxic, single point] | 
7 | Cc1ccc(C(=O)N2CCN(c3ccc(NC(=O)c4ccc(Br)o4)cc3)CC2)cc1 | inconclusive [cytotoxic, single point] | 
8 | O=C(COC(=O)CNC(=O)c1ccco1)Nc1ncc(Cl)cc1Cl | inactive | 
9 | Cc1ccc(C(CC(=O)NCc2ccco2)c2ccc(OC(C)C)cc2)cc1 (centres undefined) | inconclusive [cytotoxic, single point] | 
10 | Cn1c(CN2CCCCC2)nc2cc(NC(=O)c3ccccc3Cl)ccc21 | inconclusive [cytotoxic, single point] | 
11 | O=C(Nc1ncc(Cc2ccc(C(F)(F)F)cc2)s1)c1ccc(-c2cccc([N+](=O)[O-])c2)o1 | inactive | 
12 | COc1ccc(C2=NOC(C(=O)NCc3ccco3)C2)cc1OC (centres undefined) | active: 4.47 µM | 
13 | O=S1(=O)OCCC(c2ccccc2)N1Cc1ccccc1 (centres undefined) | inactive | 
14 | Cc1ccc(S(=O)(=O)c2cc3ccccc3oc2=O)cc1 |  | inconclusive: -16.1% [cytotoxic]
15 | CC(C)(C)N=C1NC(=NC(C)(C)C)c2ccccc21 | inconclusive [cytotoxic, single point] | 
16 | Cc1[nH]n(-c2ccc(Br)cc2)c(=O)c1/C=N/NC(=O)c1ccccc1 | inconclusive [cytotoxic, partial curve] | 
17 | CCCSc1nnc2nc3c(nn12)c1ccccc1n3C | inactive | 
18 | Cc1ccc(/C=C(\C#N)C(=O)NCC2CCCO2)o1 (centres undefined) | inconclusive [rising, single point] | 
19 | Cc1cccn2c(CNCC3(c4ccccc4)CCCC3)c(C(=O)N3CCOCC3)nc12 | inactive | 
20 | CCOc1ccc(N2C(=O)Nc3ccccc3C2(O)C(=O)NCc2ccc3c(c2)OCO3)cc1 (centres undefined) | inconclusive [cytotoxic, single point] | 
21 | COc1ccc(C(=O)/C=C/c2ccc3c(c2)OCCO3)cc1 | inconclusive [cytotoxic, single point] | 
22 | CCn1cc(C(=O)NCCCN2CCCC(C)C2)c(=O)c2cc(S(=O)(=O)N3CCc4ccccc4C3)ccc21 (centres undefined) | active: 20.6 µM | 
23 | COc1ccc(S(=O)(=O)N2N=C(C)Oc3ccccc3C2=O)cc1 | active: 3.26 µM | 

Row | Compound | Potency | activity, negative = toxicity
24 | COc1cc(S(=O)(=O)N2CCC(O)(c3cccc(C(F)(F)F)c3)CC2)ccc1-n1cnnn1 | inconclusive [cytotoxic, single point] | 
25 | COc1ccc(Cc2c(-c3ccc(F)cc3)nc3ccc(Cl)cn23)c(C)c1 | inconclusive [cytotoxic, single point] | 
26 | COc1ccc(CCNC(=O)CSc2nc3ncccc3[nH]2)c(OC)c1 | inactive | 
27 | Cc1cc(C2CC(=O)Nc3ccccc3S2)c(C)s1 (centres undefined) | inactive | 
28 | C[C@H](NC(=O)c1ccco1)C(=O)NNC(=O)c1ccc(F)cc1 | inactive | 
29 | CCOC(=O)c1ncccc1NC(=O)CC(=O)Nc1cccnc1C(=O)OCC | inconclusive [cytotoxic, single point] | 
30 | O=C(NCc1ccco1)C12CC3CC(C1)CC(C(=O)NCc1ccco1)(C3)C2 | inactive | 
31 | C[C@]12C=CC(=O)C=C1CC[C@@H]1[C@@H]2[C@@H](O)C[C@@]2(C)[C@H]1CC[C@]2(O)C(=O)COC(=O)CCC(=O)O |  | inconclusive: 24.5%
32 | O=c1[nH]c2ccccc2nc1/C=C(\O)c1cccs1 | inconclusive [cytotoxic, partial curve, poor fit] | 
33 | Cc1cc(C(=O)c2ccc3ccccc3c2)c(C)o1 | inactive | 
34 | Cc1ccccc1[C@H](NC1c2ccccc2C=Cc2ccccc21)P(=O)(c1ccccc1)c1ccccc1 | active: 13 µM | 
35 | Cc1cc(C)cc(Nc2nc(-c3ccc(S(=O)(=O)N4CCCC4)cc3)cs2)c1 | inconclusive [cytotoxic, partial curve] | 
36 | COc1ccc(OC)c(S(=O)(=O)Nc2ccc(-c3ccc4nncn4n3)cc2)c1 | active: 16.4 µM | 
37 | COc1ccc(N(C(=O)c2ccccc2)S(=O)(=O)c2cccs2)cc1 | inconclusive [cytotoxic, single point] | 
38 | O=C(NCc1nc2ccccc2[nH]1)C1=C[C@H](C2CCCCC2)C[C@H](OCc2ccc(CO)cc2)O1 | inconclusive [cytotoxic, single point] | 
39 | O=C1Nc2ccc(Cl)cc2C(C#CC2CC2)(C(F)(F)F)O1 (centres undefined) | inconclusive [cytotoxic, single point] | 
40 | O=C(Nc1ccc2c(c1)OCO2)c1cc(C2CCCN(C(=O)CCCc3ccccc3)C2)on1 (centres undefined) | inconclusive [cytotoxic, single point] | 
41 | Cc1cc(/C=C2/SC(=S)N(c3cccc(Cl)c3)C2=O)c(C)n1-c1cccnc1 | active: 3.26 µM | 
42 | CC(C)C(=O)NC(c1ccc(Cl)cc1Cl)c1ccc2cccnc2c1O (centres undefined) | inconclusive [cytotoxic, full curve] | 
43 | Cc1c(C)n(Cc2ccccc2)c2ccc(C(=O)OCCCN(C)C)cc12 | active: 13 µM | 
44 | C#CCOCCOCCOCCNc1nc(N2CCN(C(=O)[C@H](C)n3cc(CCC(=O)O)nn3)CC2)nc(N2CCN(C(=O)[C@H](CCCCN)n3cc(CCCC)nn3)CC2)n1 | inactive | 
45 | CCCNC(=O)C1(C)CCCN(Cc2ccc3ccccc3c2)C1 (centres undefined) |  | inconclusive: -12.8% [cytotoxic]
46 | CS(=O)(=O)c1ccc(C(=O)OCc2nnc(-c3ccc(Cl)cc3)o2)cc1[N+](=O)[O-] | active: 18.4 µM | 

Row | Compound | Potency | activity, negative = toxicity
47 | O=C1CSC(=S)N1Nc1ccccc1 | active: 5.8 µM | 
48 | CC(C)(C)c1ccc(C(=O)N2CCC2(C)C(=O)Nc2ccc3nc[nH]c3c2)cc1 (centres undefined) | inactive | 
49 | CCCCn1c(N)c(S(=O)(=O)c2ccc(C)cc2)c2nc3ccccc3nc21 | inconclusive [cytotoxic, single point] | 
50 | CC(C)(C)c1ccc(C(=O)N2CCC2(C)C(=O)Nc2cccc(C#N)c2)cc1 (centres undefined) | inconclusive [cytotoxic, single point] | 
51 | COc1ccc(NC(=O)CSc2nc3sc(C)c(C)c3c(=O)n2Cc2ccco2)cc1 | inconclusive [cytotoxic, single point] | 
52 | Cc1ccnc(NC(=O)c2ccc(OCC3CCCO3)cc2)c1 (centres undefined) | inconclusive [cytotoxic, partial curve] | 
53 | CC(C)C(=O)N1CCN(c2nc(-c3ccc(Cl)cc3)cs2)CC1 | inconclusive [cytotoxic, single point] | 
54 | COc1ccc(-c2ccc3c(c2)[C@@H]2C[C@H](N(C)C(=O)C(C)(C)C)[C@H]([C@H](C)O)C(=O)N2CC3)cc1 | inactive | 
55 | CCCN(C(=O)c1cc2c(s1)CCC2)c1c(N)n(Cc2ccccc2)c(=O)[nH]c1=O | inactive | 
56 | Cc1ccc(C(=O)C2C(c3ccc(-c4ccccc4[N+](=O)[O-])o3)NC(=O)NC2(O)C(F)(F)F)cc1 (centres undefined) | inconclusive [cytotoxic, single point] | 
57 | Cc1c(Cl)cccc1NC(=S)NCCC(c1ccccc1)c1ccccc1 | inconclusive [cytotoxic, single point] | 
58 | Cc1nnc(N/N=C/c2ccc(-c3ccc(Br)cc3)o2)n1N | inconclusive [cytotoxic, single point] | 
59 | O=C1C=CC(=Nc2ccc(F)cc2)O1 | inconclusive [cytotoxic, single point] | 
60 | Cc1ccc(-c2cc(=O)c3ccccc3[nH]2)cc1 | inconclusive [cytotoxic, single point] | 
61 | COc1ccc(N(CC(=O)Nc2cc(Cl)ccc2C)S(=O)(=O)c2c(C)n[nH]c2C)cc1 | inconclusive [cytotoxic, single point] | 
62 | CCCCCCOc1ccc(OC(=O)c2ccncc2)cc1 | active: 16.4 µM | 
63 | NC(=O)c1c(NC(=O)CSc2nnc(-c3ccco3)n2-c2ccccc2)sc2c1CCC2 | inconclusive [cytotoxic, single point] | 
64 | O=C(/C=C/Nc1ccccc1Br)c1ccccn1 | inconclusive [cytotoxic, partial curve] | 
65 | O=C(NCCN1CCCCC1)c1ccc(Oc2cc(Cl)cc(Cl)c2)o1 | active: 25.9 µM | 
66 | C=CCn1c(SCc2csc(C)n2)nc2scc(-c3ccc(C)o3)c2c1=O | inconclusive [cytotoxic, single point] | 
67 | O=C(NC(Cc1c[nH]c2ccccc12)C(=O)Nc1ccc(OC(F)(F)F)cc1)c1cccs1 (centres undefined) | active: 20.6 µM | 
68 | Cc1cccc(CS(=O)(=O)c2ncc(Cl)c(C(=O)Nc3c(C)cccc3C)n2)c1 | active: 14.6 µM | 
69 | COc1ccc(C2NC(=O)CCC2[N+](=O)[O-])cc1OC (centres undefined) | inactive | 

— PubChem BioAssay AID686971 (National Center for Advancing Translational Sciences (NCATS), 2013)
